Results taken from US5455278A (priority 1994, dated 1995).

Key:
L. monocytogenes = assay: Effect of oxygen on the inhibitory activity of falcarindiol; conditions: anaerobic, pH 7.5, 20° C.; versus control
Protocol: This molecule is not only involved in the survival of food-borne pathogens but can also be transformed to toxic metabolites. To evaluate the influence of oxygen on inhibition by falcarindiol in the carrot extract, L. monocytogenes was grown at pH 7.5 and 20° C. in the presence of the compound under anaerobic and aerobic conditions. […] It should be noted that the aerobic control grew at rate faster than the anaerobic control, thus making the difference in the activity of falcarindiol even more pronounced.

[1] = tested on: Listeria monocytogenes cells; assay: Transmission electron microscopy of Listeria monocytogenes cells treated with falcarindiol
Description: The exact mechanism by which falcarindiol inhibits pathogens is not known.

## C=CC(O)C#CC#CC(O)C=CCCCCCCC (centres unmarked) [falcarindiol]
L. monocytogenes
  growth rate of L. monocytogenes after the lag phase: grew at a similar rate as the control
[1]
  effect on L. monocytogenes cells by transmission electron microscopy: affected the cell envelope, causing leakage of intracellular materials
